Reference: PubChem BioAssay (Tox21)
“And” between values parts separate entries of the source, which are not always exact repeats. Identical values can stand only once. The inconclusive results got no clear call from the source; some entries with a clear call stand among them for comparison. For some of these results: Potencies beside an inconclusive call are fits to weak or partial responses and may not hold up. Some compounds were tested as several samples or in several runs, with calls that do not always agree. The source made the active and inactive calls. Unless noted, calls come from the whole dose curve; as a rule, active = well fitted curve in the direction sought with a large enough effect in the repeat runs; inconclusive = weak or mixed curves; inactive = no such curve, though single readings can be large; an effect the other way counts as inactive or inconclusive.

Experiments:
[1] = qHTS assay for identifying genotoxic compounds that show differential cytotoxicity against isogenic chicken DT40 cell lines with known DNA damage response pathways - wild type cell line (AID 743012); conditions: DT40 wild type chicken cells viability, CellTiter-Glo, 40 h; for Potency: activity change, negative = cytotoxicity: at 68.4 µM (top of the series) unless noted; note: potency is the fitted concentration of half-maximal effect; for activity change, negative = cytotoxicity: % is set by controls: 0 for no effect and ±100 for the full control effect; for all read-outs here: nearly all actives have a fitted effect of over 60% in size
Summary of the method: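 Wild-type DT40 cells (300/well) exposed to compounds for 40 hours at 37 C/5% CO2. Viability read by CellTiter-Glo luminescence after 30 min at room temperature.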

[2] = qHTS assay to identify small molecule antagonists of the estrogen receptor alpha (ER-alpha) signaling pathway - cell viability counter screen (AID 743074; calls by dose curve; note: nearly all actives have a fitted effect of over 45% in size; note: potency is the fitted concentration of half-maximal effect); conditions: ERalpha-bla HEK293 viability, CellTiter-Glo luminescence, 18 h; series mostly up to 69.4 µM
[3] = molecular target: Androgen receptor (Homo sapiens) (UniProt P10275); assay: qHTS assay to identify small molecule antagonists of the androgen receptor (AR) signaling pathway (AID 743035; active = well fitted inhibition curve with a large enough effect in the signal ratio in the repeat runs, not every such curve was filed as active; inconclusive = weak or mixed curves, or effect the other way; inactive = no such curve, though single readings can be large or run the other way; the % refers to the signal ratio; note: potency is the fitted concentration of half-maximal effect; for activity change, negative = inhibition: % is set by controls: 0 for no effect and ±100 for the full control effect); conditions: HEK293 AR-UAS-bla, R1881-stimulated, beta-lactamase FRET, 16 h; activity change, negative = inhibition: at 58.5 µM (top of the series) unless noted
Summary of the method: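 HEK293 cells stably carrying UAS-beta-lactamase reporter, 2,000/well, given compounds plus R1881 agonist and incubated 16 h at 37C. LiveBLAzer B/G FRET substrate then added for 2 h at room temperature before fluorescence reading.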

[4] = qHTS assay to identify small molecule antagonists of the androgen receptor (AR) signaling pathway using the MDA cell line - cell viability counter screen (AID 743041; note: % is set by controls: 0 for no effect and ±100 for the full control effect; nearly all actives have a fitted effect of over 45% in size); conditions: MDA-kb2 viability, CellTiter-Fluor, 16 h, cells co-treated with R1881 androgen agonist; viability change, negative = cytotoxic: at 70.3 µM (top of the series) unless noted
Summary of the method: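 MDA-kb2 AR-luc human breast carcinoma cells (MMTV-luciferase, AR/GR responsive) were treated with compounds plus R1881 agonist for 16 h at 37 °C. Viability was read as CellTiter-Fluor fluorescence in the same wells as the reporter assay.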

[5] = molecular target: Estrogen receptor (Homo sapiens) (UniProt P03372); assay: qHTS assay to identify small molecule antagonists of the estrogen receptor alpha (ER-alpha) signaling pathway (AID 743069; active = well fitted curve in the direction sought with a large enough effect in the signal ratio in the repeat runs, not every such curve was filed as active; inconclusive = weak or mixed curves, or effect the other way; inactive = no such curve, though single readings can be large or run the other way; the % refers to the signal ratio; note: potency is the fitted concentration of half-maximal effect; for activity, negative = inhibition: % is set by controls: 0 for no effect and ±100 for the full control effect); conditions: HEK293 ER-alpha-UAS-bla, beta-lactamase ratio, antagonist mode; activity, negative = inhibition: at 69.4 µM (top of the series) unless noted
Summary of the method: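 HEK293 cells stably carrying an ER-alpha-UAS-bla beta-lactamase reporter were pre-cultured overnight in 2% charcoal-stripped FBS medium. Test compounds in DMSO were added together with 17beta-estradiol for 18 hr at 37C. Read-out was fluorescence after 2 hr with LiveBLAzer B/G FRET substrate at room temperature.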

[6] = molecular target: Androgen receptor (Homo sapiens) (UniProt P10275); assay: qHTS assay to identify small molecule agonists of the androgen receptor (AR) signaling pathway (AID 743036; active = well fitted activation curve with a large enough effect in the signal ratio in the repeat runs, with a control signal flat, not every such curve was filed as active; inconclusive = weak or mixed curves, or effect the other way; inactive = no such curve, though single readings can be large or run the other way; the % refers to the signal ratio; note: potency is the fitted concentration of half-maximal effect; for activation: % is set by controls: 0 for no effect and ±100 for the full control effect); conditions: HEK293 AR-UAS-bla GripTite, beta-lactamase FRET ratio, 16 h; activation: at 62.4 µM (top of the series) unless noted
Summary of the method: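 Fluorescence from a beta-lactamase FRET substrate served as read-out in AR-UAS-bla GripTite HEK293 cells. Cells were treated with DMSO-dissolved compounds for 16 h at 37C, then with LiveBLAzer B/G substrate for 2 h at room temperature.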

[7] = qHTS assay to identify small molecule antagonists of the thyroid receptor (TR) signaling pathway (AID 743065); conditions: GH3.TRE-Luc, T3-stimulated luciferase inhibition, 23.5 h; series mostly up to 70.3 µM; note: potency is the fitted concentration of half-maximal effect; nearly all actives have a fitted effect of over 55% in size
Summary of the method: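 GH3.TRE-Luc rat pituitary cells carrying two TR response elements driving luciferase were plated for 4 h, given compound plus 1 nM T3 (final), and incubated 23.5 h at 37 C. ONE-Glo luminescence measured reporter inhibition; CellTiter-Fluor fluorescence tracked cytotoxicity.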

Aromatase (Homo sapiens) = Aromatase (Homo sapiens) (UniProt P11511); assay: qHTS assay to identify aromatase inhibitors (AID 743083); conditions: MCF-7 aro ERE, testosterone-driven ERE luciferase, 24 h; series mostly up to 70.3 µM; note: potency is the fitted concentration of half-maximal effect; nearly all actives have a fitted effect of over 55% in size
[8] = qHTS assay to identify small molecule antagonists of the estrogen receptor alpha (ER-alpha) signaling pathway using the BG1 cell line (AID 743080; calls by dose curve;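 note: BG1 cells stimulated with 17beta-estradiol alongside compound; potency is the fitted concentration of half-maximal effect; nearly all actives have a fitted effect of over 25% in size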); conditions: BG1Luc4E2 ERE-luciferase antagonist mode, luminescence; activity change, negative = inhibition: at 70.3 µM (top of the series) unless noted
Summary of the method: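 Seeding, 24 h rest, compound transfer from DMSO, 17beta-estradiol addition, 21.5 h incubation, CellTiter-Fluor (30 min, 37 C), then ONE-Glo (30 min, room temperature): this sequence was run on BG1-Luc-4E2 reporter cells.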

[9] = test system: thyroid hormone receptor (rat, GH3 cells); assay: qHTS assay to identify small molecule agonists of the thyroid receptor (TR) signaling pathway (AID 743066; calls by dose curve; note: potency is the fitted concentration of half-maximal effect); conditions: GH3.TRE-Luc cells, TR agonist luciferase, 24 h; activation: at 83.9 µM (top of the series) unless noted
[10] = qHTS assay to identify aromatase inhibitors - cell viability counter screen (AID 743084); conditions: MCF-7 aro ERE viability, CellTiter-Fluor, 24 h; activity change, negative = cytotoxicity: at 70.3 µM (top of the series);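 note: cells stimulated with testosterone during compound exposure; potency is the fitted concentration of half-maximal effect; nearly all actives have a fitted effect of over 55% in size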
[11] = qHTS assay to identify small molecule antagonists of the estrogen receptor alpha (ER-alpha) signaling pathway using the BG1 cell line - cell viability counter screen (AID 743081); conditions: BG1Luc4E2 viability, CellTiter-Fluor, 22 h; series mostly up to 70.3 µM;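 note: compound given together with 17beta-estradiol as the ER stimulus; nearly all actives have a fitted effect of over 45% in size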; note: potency is the fitted concentration of half-maximal effect
[12] = qHTS assay for identifying genotoxic compounds that show differential cytotoxicity against isogenic chicken DT40 cell lines with known DNA damage response pathways - Rev3 mutant cell line (AID 743014); conditions: chicken DT40 Rev3-/- viability, CellTiter-Glo, 40 h; activity, negative = cytotoxicity: at 68.4 µM (top of the series) unless noted; note: nearly all actives have a fitted effect of over 55% in size; note: potency is the fitted concentration of half-maximal effect
[13] = qHTS assay for identifying genotoxic compounds that show differential cytotoxicity against isogenic chicken DT40 cell lines with known DNA damage response pathways - Rad54/Ku70 mutant cell line (AID 743015); conditions: DT40 Rad54/Ku70 mutant viability, CellTiter-Glo, 40 h; activity change, negative = cytotoxicity: at 66.8 µM (top of the series); note: potency is the fitted concentration of half-maximal effect; nearly all actives have a fitted effect of over 60% in size
[14] = qHTS assay to identify small molecule antagonists of the thyroid receptor (TR) signaling pathway - cell viability counter screen (AID 743064); conditions: GH3.TRE-Luc viability, CellTiter-Fluor, 24 h; activity change, negative = cytotoxic: at 70.3 µM (top of the series) unless noted; note: nearly all actives have a fitted effect of over 50% in size; note: potency is the fitted concentration of half-maximal effect
Summary of the method: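 Fluorescence from CellTiter-Fluor, added after 23.5 h exposure at 37 °C, reported viability of GH3.TRE-Luc cells co-treated with compound and 1 nM T3. Measured in the same wells as the luciferase TR readout.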

[15] = molecular target: Estrogen receptor (Homo sapiens) (UniProt P03372); assay: qHTS assay to identify small molecule agonists of the estrogen receptor alpha (ER-alpha) signaling pathway (AID 743075; calls by dose curve; note: potency is the fitted concentration of half-maximal effect); conditions: HEK293 ER-alpha-UAS-bla, beta-lactamase FRET ratio, 18 h; series mostly up to 70.1 µM
[16] = molecular target: Estrogen receptor (Homo sapiens) (UniProt P03372); assay: qHTS assay to identify small molecule agonists of the estrogen receptor alpha (ER-alpha) signaling pathway using the BG1 cell line (AID 743079); conditions: BG1Luc4E2 cells, ERE-luciferase agonist, 22 h; activation: at 70.3 µM (top of the series) unless noted; note: potency is the fitted concentration of half-maximal effect; nearly all actives have a fitted effect of over 20% in size
Tags give direction and shape of the fitted curve or compound fluorescence and quenching.

Sequence of UniProt P10275 (P10275 whole entry, looked up): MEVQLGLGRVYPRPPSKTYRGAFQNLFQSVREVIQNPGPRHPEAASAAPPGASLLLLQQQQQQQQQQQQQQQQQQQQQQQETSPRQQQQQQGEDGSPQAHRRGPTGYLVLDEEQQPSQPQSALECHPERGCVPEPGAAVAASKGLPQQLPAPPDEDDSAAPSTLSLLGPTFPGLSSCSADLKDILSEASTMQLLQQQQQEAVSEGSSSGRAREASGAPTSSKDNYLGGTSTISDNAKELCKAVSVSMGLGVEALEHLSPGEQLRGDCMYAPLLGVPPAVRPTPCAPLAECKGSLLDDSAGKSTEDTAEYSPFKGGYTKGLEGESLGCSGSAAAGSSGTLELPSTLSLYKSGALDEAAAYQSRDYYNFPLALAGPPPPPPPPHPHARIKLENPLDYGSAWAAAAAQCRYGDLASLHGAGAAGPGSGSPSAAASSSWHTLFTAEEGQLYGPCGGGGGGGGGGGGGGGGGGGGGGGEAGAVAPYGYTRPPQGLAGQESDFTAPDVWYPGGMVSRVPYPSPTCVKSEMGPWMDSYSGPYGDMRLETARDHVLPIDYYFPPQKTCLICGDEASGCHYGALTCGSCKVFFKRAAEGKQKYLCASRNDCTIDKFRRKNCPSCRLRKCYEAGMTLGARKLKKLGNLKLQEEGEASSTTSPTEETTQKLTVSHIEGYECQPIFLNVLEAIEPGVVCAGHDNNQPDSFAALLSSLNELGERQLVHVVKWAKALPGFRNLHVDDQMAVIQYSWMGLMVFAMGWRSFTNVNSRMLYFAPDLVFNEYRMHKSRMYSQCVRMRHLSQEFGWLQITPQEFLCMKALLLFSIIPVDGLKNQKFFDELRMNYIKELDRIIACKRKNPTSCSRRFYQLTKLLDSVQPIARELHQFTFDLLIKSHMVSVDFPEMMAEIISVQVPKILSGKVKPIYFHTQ
Sequence of UniProt P03372 (P03372 whole entry, looked up): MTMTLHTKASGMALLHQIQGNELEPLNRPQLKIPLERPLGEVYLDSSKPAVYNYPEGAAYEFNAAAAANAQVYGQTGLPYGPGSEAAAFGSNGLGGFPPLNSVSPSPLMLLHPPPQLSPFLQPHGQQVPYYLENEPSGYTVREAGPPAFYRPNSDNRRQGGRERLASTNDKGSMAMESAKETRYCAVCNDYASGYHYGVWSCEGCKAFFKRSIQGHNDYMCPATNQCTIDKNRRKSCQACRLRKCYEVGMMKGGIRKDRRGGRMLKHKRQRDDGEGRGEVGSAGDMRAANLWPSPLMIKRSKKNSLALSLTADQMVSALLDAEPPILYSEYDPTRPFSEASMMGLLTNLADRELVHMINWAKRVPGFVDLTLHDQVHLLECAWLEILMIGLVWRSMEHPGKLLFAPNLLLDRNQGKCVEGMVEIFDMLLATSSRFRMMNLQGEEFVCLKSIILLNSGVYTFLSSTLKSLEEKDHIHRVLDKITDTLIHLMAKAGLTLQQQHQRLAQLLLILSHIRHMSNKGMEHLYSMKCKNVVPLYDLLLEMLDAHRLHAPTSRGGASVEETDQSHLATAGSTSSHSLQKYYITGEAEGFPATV
Sequence of UniProt P11511 (P11511 whole entry, looked up): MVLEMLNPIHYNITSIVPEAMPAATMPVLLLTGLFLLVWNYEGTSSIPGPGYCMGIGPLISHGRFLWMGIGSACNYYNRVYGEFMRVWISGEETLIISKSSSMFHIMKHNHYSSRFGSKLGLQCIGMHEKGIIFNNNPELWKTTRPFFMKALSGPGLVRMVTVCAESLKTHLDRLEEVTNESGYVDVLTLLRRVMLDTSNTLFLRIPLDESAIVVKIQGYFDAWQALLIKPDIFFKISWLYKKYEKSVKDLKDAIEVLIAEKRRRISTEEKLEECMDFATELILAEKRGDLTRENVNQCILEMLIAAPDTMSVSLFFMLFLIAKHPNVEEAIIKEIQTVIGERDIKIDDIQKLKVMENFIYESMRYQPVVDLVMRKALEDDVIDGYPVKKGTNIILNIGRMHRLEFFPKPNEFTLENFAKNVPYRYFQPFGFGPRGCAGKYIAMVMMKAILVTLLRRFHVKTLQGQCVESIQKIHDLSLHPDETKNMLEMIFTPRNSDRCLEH

SMILES: O=C(O)c1ccccc1C(=O)O
- activity change, negative = cytotoxicity ([1]; at 95 µM (top of the series)): inactive: -1%
- Potency [2]: inconclusive: 22.6 µM [rising, partial curve, poor fit]

SMILES: CC1=Nc2ccc3ccccc3c2C1(C)C
- Potency [3]: inconclusive: 54.9 µM
- viability change, negative = cytotoxic [4]: inconclusive: 19.1%
- Potency [5]: inconclusive: 43.6 µM [fluorescent, partial curve]

SMILES: Oc1ccc2c(c1)-c1ccccc1C2
- activity change, negative = inhibition [3]: inconclusive: -43.4%
- Potency [6]: inactive
- Potency [7]: inconclusive: 68.6 µM [inhibitor, single point]
- Potency (Aromatase (Homo sapiens)): inconclusive: 68.6 µM [inhibitor, single point]

SMILES: Nc1cc(Cl)c(N)c(Cl)c1
- Potency [7]: inconclusive: 68 µM [inhibitor, single point]
- Potency [5]: inactive
- Potency [2]: inconclusive: 4.9 µM [cytotoxic, full curve]
- Potency [8]: active: 34.1 µM
- Potency (Aromatase (Homo sapiens)): inconclusive: 54 µM [inhibitor, partial curve]

SMILES: O=c1[nH]cnc2c1ncn2[C@H]1CC[C@@H](CO)O1
- Potency [9]: active: 1.31 µM
- Potency [10]: inconclusive: 33.5 µM [rising, partial curve, poor fit]

SMILES: C=CCOC(=O)c1ccccc1C(=O)OCC=C
- Potency [11]: inactive

SMILES: NC(Cc1ccc(F)cc1)C(=O)O (stereo not drawn)
- Potency [1]: inconclusive: 3.73 µM [cytotoxic, single point]
- Potency [12]: inconclusive: 3.73 µM [cytotoxic, single point]
- Potency [13]: active: 1.87 µM
- Potency [7]: inconclusive: 3.73 µM [inhibitor, single point]
- activity, negative = cytotoxicity [2]: inactive: -20% [at 6.72 µM]

SMILES: CC(C)(N=C=O)c1cccc(C(C)(C)N=C=O)c1
- Potency [1]: inconclusive: 7.63 µM [rising, full curve]
- Potency [12]: inconclusive: 76.3 µM [cytotoxic, single point] and inactive
- Potency [13]: inconclusive: 68 µM [cytotoxic, single point]
- Potency [14]: inconclusive: 76.3 µM [cytotoxic, single point]
- Potency [7]: inconclusive: 68 µM [inhibitor, single point]

SMILES: CN1CCCCC1CCN1c2ccccc2Sc2ccc(S(C)=O)cc21 (stereo not drawn)
- Potency [1]: inconclusive: 33.5 µM [cytotoxic, single point]
- Potency [12]: inconclusive: 33.5 µM [cytotoxic, single point]
- Potency [13]: inconclusive: 33.5 µM [cytotoxic, single point] and active: 29.8 µM
- activation [9]: inconclusive: -7.45% [phenotype inactive]
- Potency [15]: inactive
- Potency [11]: inconclusive: 8.41 µM [cytotoxic, partial curve, poor fit]

SMILES: O=C(c1ccccc1)c1ccc(O)cc1
- Potency [1]: inconclusive: 69.4 µM [cytotoxic, single point]
- Potency [12]: inconclusive: 77.8 µM [cytotoxic, single point]
- Potency [13]: inconclusive: 69.4 µM [cytotoxic, single point]
- Potency [3]: inconclusive: 6.24 µM [rising, full curve]
- Potency [6]: inconclusive: 4.95 µM [rising, full curve, poor fit]
- activity change, negative = cytotoxic [14]: inconclusive: -1.05% [at 95 µM]
- Potency [5]: inconclusive: 55.6 µM [rising, partial curve, poor fit]
- Potency [15]: inconclusive: 49.5 µM [partial curve]
- Potency [8]: inconclusive: 21.9 µM [rising, partial curve]

SMILES: COc1ccc(-c2coc3cc(O)cc(O)c3c2=O)cc1
- Potency [1]: inconclusive: 2.75 µM [rising, full curve]
- Potency [12]: inconclusive: 69.1 µM [cytotoxic]
- Potency [13]: inconclusive: 69.1 µM [cytotoxic, single point]
- Potency [4]: inactive
- Potency [14]: inconclusive: 27.5 µM [rising, single point]
- Potency [7]: inconclusive: 69.1 µM [inhibitor, single point]
- Potency [5]: inconclusive: 55.4 µM [single point] and inconclusive: 49 µM [fluorescent]
- Potency [16]: active: 436 nM and active: 864 nM
- Potency [8]: inconclusive: 3.09 µM [rising, full curve] and inconclusive: 864 nM [rising, full curve]
- Potency [10]: inconclusive: 77.6 µM [cytotoxic, single point] and inconclusive: 68.6 µM [cytotoxic]

SMILES: CCN(CC)CCOC(=O)C(c1ccccc1)c1ccccc1
- Potency [1]: inconclusive: 33.5 µM [cytotoxic, single point]
- Potency [12]: inconclusive: 26.6 µM [cytotoxic, partial curve]
- Potency [13]: inconclusive: 33.5 µM [cytotoxic, single point]
- Potency [14]: inconclusive: 33.5 µM [cytotoxic, single point]
- Potency [7]: inconclusive: 33.5 µM [inhibitor, partial curve, poor fit]
- Potency [2]: inconclusive: 26.8 µM [rising, single point]
